PubChem BioAssay AID1240 (Sanford-Burnham Center for Chemical Genomics, 2008)
In all, about 50,000 compounds went through this assay and about 800 (1.6%) showed an effect of 50% or more. The list shows a part of the results.

molecular target: Bcl-2-like protein 10 (Homo sapiens) (UniProt Q9HD36); assay: Phenotype converters, Bcl-B/TR3 peptide binding displacement, primary biochemical FP (AID 1240); conditions: GST-Bcl-B / FITC-TR3 peptide fluorescence polarization; stronger effect = higher value; compound at 3.75 mg/L;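 note: 0% = Bcl-B with tracer peptide and DMSO and 100% = tracer peptide lacking Bcl-B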
Sequence of UniProt Q9HD36 (Q9HD36 whole entry, looked up): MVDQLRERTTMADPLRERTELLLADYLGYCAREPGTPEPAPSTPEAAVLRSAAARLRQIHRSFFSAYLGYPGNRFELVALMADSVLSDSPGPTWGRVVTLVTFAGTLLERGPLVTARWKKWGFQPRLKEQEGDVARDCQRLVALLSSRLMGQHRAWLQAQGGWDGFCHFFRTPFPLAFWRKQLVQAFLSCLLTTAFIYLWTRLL

| SMILES | displacement [%] |
| --- | --- |
| CCOc1ccccc1NC(=O)CCCOc1ccccc1 | -0.8 |
| CCN(CC)C(=O)CN(c1ccc(C)cc1)S(=O)(=O)c1ccc(F)cc1 | 9 |
| Cn1nnc(NC(=O)c2ccccc2F)n1 | 8.5 |
| O=C(CCN1C(=O)c2ccccc2C1=O)Nc1ccc(F)c(Cl)c1 | -10.7 |
| O=C1C(=Cc2cccc3ccccc23)C(=O)c2ccccc21 | -4.8 |
| CC(C)C(=O)Nc1ccc2oc(-c3ccccc3Br)nc2c1 | 8.2 |
| O=C1N=C(c2ccccc2)S/C1=C\c1ccccc1 | 6.1 |
| Clc1ccc(-c2noc(-c3ccc(I)cc3)n2)cc1 | -0.6 |
| O=C(CSc1nc2sc3c(c2c(=O)n1-c1ccc(Cl)cc1)CCC3)Nc1ccccc1 | 4.3 |
| O=[N+]([O-])c1cccc(CN2CCN(Cc3cccnc3)CC2)c1 | -8.7 |
| Cc1ccc(SCC(=O)Nc2cccc3ncccc23)cc1 | 47.1 |
| O=C(CCN1C(=O)c2ccccc2C1=O)NCc1ccccn1 | 9.5 |
| COc1ccccc1CN1CCN(S(C)(=O)=O)CC1 | 15.4 |
| COc1cccc(NC(=O)CN(c2ccc(OC)c(Cl)c2)S(=O)(=O)c2ccccc2)c1 | 11.7 |
| Cc1ccc2nc3[nH]c(=O)[nH]c(=O)c3nc2c1 | 2.7 |
| Cc1ccccc1C(=O)Nc1ccc(-c2ccc([N+](=O)[O-])cc2)cc1 | 1.5 |
| COc1ccc(OC)c(/C=N\NC(=O)CNc2ccc(C)cc2)c1 | 5.1 |
| O=C(NCc1ccccc1Cl)C1CC(=O)N(c2cccc([N+](=O)[O-])c2)C1 (stereo not drawn) | -9.6 |
| O=C(COc1ccc(Cl)cc1Br)N1CCN(c2ccccn2)CC1 | 5.3 |
| COC(=O)/C(C#N)=C\c1ccc(OC)cc1 | -8.7 |
| CCOC(=O)c1c(NC(C)=O)sc(I)c1-c1ccccc1 | 0.8 |
| Cc1nc2c(C)cccc2c2c1CC(C)O2 (stereo not drawn) | 31.8 |
| Cc1cc(NS(=O)(=O)c2ccc(Nc3nc(-c4ccccc4)cs3)cc2)no1 | 10.4 |

| SMILES | displacement [%] |
| --- | --- |
| O=C(CN(c1ccc(F)cc1)S(=O)(=O)c1ccccc1)N1CCN(c2ccccc2)CC1 | -7.5 |
| Cc1ccc(NC(=O)/C=C\C(=O)O)c(C)c1 | 14.1 |
| CC1(C)CC(=O)C(C=Nc2ccc(S(N)(=O)=O)cc2)=C(O)C1 | 5.2 |
| Cc1ccc([N+](=O)[O-])cc1NC(=O)COc1ccc(Cl)cc1C | 2.5 |
| CC(=O)Nc1ccc(NC(=S)Nc2ccc(F)cc2)cc1 | -0.5 |
| Cc1ccc(-n2nc3cc(C)c(NC(=O)c4cc(Cl)ccc4Cl)cc3n2)cc1 | -4.7 |
| Cc1c(OCc2ccccc2F)ccc2c3c(c(=O)oc12)CCCC3 | -3.9 |
| Cn1c2nc(-[n+]3ccccc3)nc-2c([O-])n(C)c1=O | -0.3 |
| Cc1ccccc1N(CC(=O)NCc1ccccn1)S(C)(=O)=O | -9 |
| Cc1cccc(NC(=O)C(C)Oc2ccccc2)c1C (stereo not drawn) | -5 |
| Cc1ccc(NC(=O)C(=O)NCc2ccccc2Cl)c(C)c1 | 6.1 |
| S=C1NC(c2cccs2)=CC(c2ccc(Br)cc2)N1 (stereo not drawn) | -4 |
| O=C1/C(=C\c2ccc(O)c(O)c2)SC(=S)N1c1ccc(F)cc1 | 17.8 |
| CC(NC(=O)c1cnn(-c2ccccc2)c1NC(=O)c1ccccc1)c1ccccc1 (stereo not drawn) | -11.6 |
| COc1ccc(OCC(=O)Nc2cccc(C(C)=O)c2)cc1 | 9.4 |
| CC/C(=N/O)c1ccc(CCCC(=O)O)s1 | 2.1 |
| Cc1occc1C(=O)Nc1ccc(F)cc1F | 0.3 |
| O=C(O)c1ccc(CS(=O)(=O)c2ccc(Br)cc2)cc1 | -5.2 |
| COc1cccc(/C=N/NC(=O)CSCC(=O)Nc2ccccc2)c1O | -24.4 |
| CSc1ccc(C2Nc3ccc4ccccc4c3C3=C2C(=O)CC(C)(C)C3)cc1 (stereo not drawn) | -3 |
| O=C(NC(=S)Nc1cccc(F)c1)c1ccccc1 | 4.2 |
| CCc1ccc2[nH]cc(C(=O)O)c(=O)c2c1 | -9 |
| O=C1c2ccccc2NC(c2ccccc2)N1Cc1ccccc1 (stereo not drawn) | 15.9 |

| SMILES | displacement [%] |
| --- | --- |
| CCc1ccccc1NC(=O)c1c(NC(=O)c2ccccc2)sc2c1CCC2 | -15.6 |
| OCCN(C(=S)Nc1ccc2nccnc2c1)c1ccccc1 | 14.9 |
| COc1ccc(C2c3cc(OC)c(OC)cc3CC(=O)N2c2ccc(OC)cc2)cc1 (stereo not drawn) | 6.4 |
| CCc1ccc(N2N=C(C)/C(=C\c3ccc(-c4ccc5c(c4)C(=O)NC5=O)o3)C2=O)cc1 | 3.8 |
| COc1cccc(C2C(C(=O)OCc3ccccc3)=C(C)NC3=C2C(=O)CCC3)c1OC (stereo not drawn) | 10 |
| Cc1ccc(-n2c(C)cc(/C=N/NC(=O)c3ccncc3)c2C)cc1C | -22.4 |
| NC(=O)c1ccccc1NC(=O)Cc1ccc(Cl)cc1 | -10.9 |
| CCOc1ccc(NC(=O)CSc2nc3ccc(OCC)cc3s2)cc1 | 11.9 |
| CCc1ccc2oc(-c3cccc(NC(=O)c4ccc(C)c([N+](=O)[O-])c4)c3)nc2c1 | 3.4 |
| CCOc1ccc(C2/C(=C(\O)c3ccccc3)C(=O)C(=O)N2CCOC)cc1 (stereo not drawn) | -12.5 |
| C=C(C)CNC(=S)Nc1ccccn1 | 3.9 |
| COc1ccc(Br)cc1/C=C/C(=O)c1cccs1 | 1.4 |
| COc1cc(F)ccc1S(=O)(=O)n1cnc2cc([N+](=O)[O-])ccc21 | 0.4 |
| Cc1ccc(CNC(=O)CCC(=O)Nc2cc(Cl)ccc2C)cc1 | -14.3 |
| O=C(CCC(=O)OCCCC(F)(F)C(F)(F)F)Nc1ccccc1 | 13.7 |
| C=CCc1cccc2cc(C(=O)OCC(=O)c3ccccc3)c(=O)oc12 | 8.3 |
| CCOC(=O)c1ccc(N2NC(=O)/C(=C/c3ccc(Br)cc3)C2=O)cc1 | -8.5 |
| Cc1ccc(C)c(N2C(=O)C3C(C2=O)C2C=CC3C23CC3)c1 (stereo not drawn) | 7.9 |
| Nc1ccc2nn(-c3ccc(Cl)cc3)nc2c1 | 11.2 |
| OC(COc1cccc(Cl)c1)Cn1cnc2ccccc21 (stereo not drawn) | -4.1 |
| Cc1ccccc1NC(=O)C(=O)NCc1ccc(F)cc1 | 1.9 |
| O=C(COc1ccc(Br)cc1)Nc1ccc(N2CCOCC2)c(Cl)c1 | -4.7 |
| O=C(Nc1ccc(Br)cc1)c1ccc(S(=O)(=O)N2CCCC2)cc1 | 16.2 |

| SMILES | displacement [%] |
| --- | --- |
| CC1=NN(c2ccc(S(N)(=O)=O)cc2)C(=O)/C1=C\c1ccccc1OCc1ccccc1 | -2.3 |
| CCOc1ccccc1NC(=O)C1C2C3CCC(C3)C12 (stereo not drawn) | -5.8 |
| CCN(CC)CCCCOc1ccc(C)cc1Cl | -3.3 |
| Cc1c(OCC(=O)c2ccc(F)cc2)ccc2c3c(c(=O)oc12)CCCC3 | -5.8 |
| COc1ccc(-c2cc(=O)n3[nH]c(-c4cccc(C)c4)cc3n2)cc1 | 6.4 |
| CCOc1cccc(C2C(C(=O)OC)=C(C)N(C)C(C)=C2C(=O)OC)c1 | -10.1 |
| COc1ccc(/C=C/C(=O)c2cccc(Br)c2)cc1OC | -5.8 |
| O=C1CSC(=S)N1/N=C/c1ccc(Cl)cc1Cl | -38.1 |
| COc1cc(C)c(CNc2cccc(C)c2)cc1C | 10 |
| COc1ccc(CC(=O)NCC2CCCO2)cc1OC (stereo not drawn) | 12.7 |
| O=C1CCCCC1Oc1ccc2c3c(c(=O)oc2c1)CCC3 (stereo not drawn) | -4.5 |
| CCOC(=O)C1=C(C)NC2=C(C(=O)c3ccccc32)C1c1ccc([N+](=O)[O-])cc1 (stereo not drawn) | -2.3 |
| Cc1ccc(C)c(OCC(O)CN2CCC(Cc3ccccc3)CC2)c1 (stereo not drawn) | -8 |
| COc1cccc(NC(=O)C2C(c3ccccc3)=C2c2ccccc2)c1 | 0.9 |
| COc1ccc(-c2nc3ccccc3c(C(=O)N3CCOCC3)c2C)cc1 | -3.3 |
| Cc1ccc(C(=O)c2cccc(NC(=O)/C=C/c3ccco3)c2)cc1C | 3.2 |
| O=C(/C=C/Nc1ccccc1NS(=O)(=O)c1ccccc1)c1ccc2c(c1)OCO2 | 7.3 |
| CCOc1ccc(N(CC(=O)NC2CCCCC2)S(C)(=O)=O)cc1 | -9 |
| COC(=O)C1=CN(CCc2ccccc2)C=C(C(=O)OC)C1c1ccc(OC)c(OC)c1 | 0 |
| CCSc1nnc(NC(=O)c2c(OC)cccc2OC)s1 | -3.7 |
| C=CCN1C(=O)C(Cc2cccc(C)c2)SC1=Nc1ccc(C(=O)O)cc1 (stereo not drawn) | -10.4 |
| CCOC(=O)c1ccc(N/C(N)=N/c2nc(C(F)(F)F)cc(=O)[nH]2)cc1 | -1.2 |
| COC(=O)c1c(NC(=O)C(F)(F)F)sc(Cc2ccccc2)c1C | -2.8 |

| SMILES | displacement [%] |
| --- | --- |
| O=C(O)c1ccc(NS(=O)(=O)c2cccc3cccnc23)cc1O | -4 |
| Cc1cc(C)cc(OCC(=O)N2CCN(c3ccccc3)CC2)c1 | 3.8 |
| O=C(CSc1nnnn1-c1ccccc1)Nc1ccc2nc(SCc3ccccc3)sc2c1 | 2.3 |
| O=C1C(=O)N(CC2CCCO2)C(c2ccc(Br)cc2)/C1=C(/O)c1ccccc1 (stereo not drawn) | -16.7 |
| O=S(=O)(N/N=C/c1ccccc1O)c1ccc(Oc2ccc(S(=O)(=O)N/N=C/c3ccccc3O)cc2)cc1 | 0.5 |
| O=C1C=CC(=O)N1c1ccc(N2CCCCC2)cc1 | 1 |
| O=C(Nc1ccc(Cl)cc1Cl)C1CC(=O)N(c2ccc(Br)cc2)C1 (stereo not drawn) | 10 |
| O=[N+]([O-])c1ccc(Cl)c(-n2ncnc2-c2cccc(Cl)c2)c1 | -5.3 |
| O=C1OC(c2ccccc2I)=N/C1=C\c1cccc([N+](=O)[O-])c1 | -4 |
| O=C(O)c1cccc([N+](=O)[O-])c1C(=O)Nc1nc2ccccc2s1 | 6.7 |
| O=C(/C=C/c1ccccc1)n1nnc2ccccc21 | 6.5 |
| O=S(=O)(Oc1ccccc1)c1cc(Cl)ccc1Cl | 10.8 |
| Cc1ccc(C(C)C)c(OCC(=O)N2CCN(c3ccc([N+](=O)[O-])cc3Cl)CC2)c1 | 2.7 |
| CCOc1cc(/C=C2/SC(=S)N(C)C2=O)cc(Cl)c1OCCOc1ccc(Br)cc1 | 2.8 |
| CCc1ccccc1NS(=O)(=O)c1ccc(OC)c(OC)c1 | 9 |
| COC(=O)C1=NNC2C(=O)N(c3ccccc3Br)C(=O)C12 (stereo not drawn) | 3.1 |
| CC1CCN(Cc2c(O)ccc3ccccc23)CC1 | 10.1 |
| COc1ccc(C2CC(=O)C3=C(C2)Nc2ccccc2NC3c2ccccc2OC(C)C)cc1 (stereo not drawn) | -7.7 |
| COc1ccc(N2C(=O)C3C4C=CC(CC4)C3C2=O)cc1 (stereo not drawn) | 3.9 |
| CN(C)CCNC(=O)C(c1ccccc1)c1ccccc1 | 11.4 |
| CCCOc1ccccc1C1C(C(=O)OCC)=C(C)NC2=C1C(=O)CC(c1ccc(Cl)cc1)C2 (stereo not drawn) | -5.3 |
